Reference: PubChem BioAssay (NCATS)
The shares of active, inactive and inconclusive entries below differ from those in the screen. Potencies of inconclusive entries are left out as doubtful fits. Calls of active or inactive are those of the source. The call rests on the fitted dose curve; in most records, active means well fitted inhibition curve with a large enough effect; inconclusive means small, poorly fitted or top-dose-only effect; inactive means flat fitted curve, though single readings scatter.

Target: Aldehyde dehydrogenase, mitochondrial (Homo sapiens) (UniProt P05091)
Test: qHTS for Inhibitors of the Aldehyde Dehydrogenase Family (ALDH2) Primary screen (AID 2061308); further: nearly all actives have a fitted effect of over 55% in size;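 on activity change, negative = inhibition: plate controls were vehicle for no effect and reference inhibitor for full effect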
Details: ALDH2 enzyme inhibition qHTS, 1536-well; series mostly up to 56 µM; activity change, negative = inhibition: at the top concentration
Potency means the concentration at half of the fitted maximal effect; tags describe the fitted curve by direction and shape.

SMILES | Potency | activity change, negative = inhibition
O=C(Cc1c(F)cccc1F)Nc1cc(OCc2ccc(Cl)cc2)ccn1 | inconclusive [inhibitor, partial curve, poor fit] | –
O=C(Nc1ccc(-c2nc3ccccc3[nH]2)cc1)c1ccc2ncsc2c1 | inconclusive [inhibitor, partial curve, poor fit] | –
Cc1cc2c(s1)c1c(C)nn(Cc3ccccc3F)c(=O)c1n2C | – | inactive: 8.3%
CNc1cccc(S(=O)(=O)N2CCCN(S(=O)(=O)c3ccc4c(c3)OCCO4)CC2)c1 | inconclusive [inhibitor, partial curve, poor fit] | –
CC(C)C1=CC2C(CC[C@]2(C)O)[C@](C)(O)CC1 (stereo not given in full) | – | inactive: -2.42%
N#Cc1nc(Nc2cccc(Cl)c2)c2ncn(C3CCCC3)c2n1 | – | inactive: 1.4%
C[C@@H]1O[C@@H](O[C@@H]2[C@@H](O)[C@H](O[C@@H]3[C@@H](O)[C@@H](O)[C@H](O[C@H]4[C@H](OC(=O)[C@]56CCC(C)(C)C[C@H]5C5=CCC7[C@@]8(C)C[C@H](O)[C@H](O[C@@H]9O[C@H](C(=O)O)[C@@H](O)[C@H](O)[C@H]9O)[C@@](C)(CO)C8[C@H](O)C[C@@]7(C)[C@]5(C)CC6)OC[C@H](O)[C@@H]4O)O[C@H]3C)OC[C@H]2O)[C@H](O)[C@H](O)[C@H]1O (stereo not given in full) | – | inactive: 10.8% [at 11.2 µM]
COc1cccc(-c2ccc3ncnc(NCc4cccnc4)c3c2)c1 | – | inactive: -0.862%
CN(Cc1cccs1)c1ncnc2ccc(-c3ccc4c(c3)OCO4)cc12 | – | inactive: 17.2%
CC(=O)Nc1ccc(S(=O)(=O)N2CCN(S(=O)(=O)c3c(F)cccc3F)CC2)cc1 | – | inactive: -6.01%
Cn1ccc2cc(-c3csc(N4CCC(C(N)=O)CC4)n3)ccc21 | inconclusive [inhibitor, full curve] | –
O=C1CCc2cc([S+](=O)([O-])Nc3ccc(N[S+](=O)([O-])c4ccc5c(c4)CCC(=O)N5)cc3)ccc2N1 | inconclusive [inhibitor, partial curve, poor fit] | –
O=C(NC1CCCc2c1cnn2CCO)c1ccccn1 (stereo not given) | inconclusive [inhibitor, single point] | –
CCOC(=O)c1ccc(-c2ccc3ncnc(N(C)Cc4ccc(C)o4)c3c2)o1 | inconclusive [inhibitor, single point] | –
NC(=O)c1ccc(-c2noc(-c3ccccc3F)n2)cc1 | – | inactive: 4.04%
CC(=O)O[C@@H]1C(=O)C(C)=C(CCC(C)CC(=O)O)[C@@]2(C)CCCC(C)(C)C12 (stereo not given in full) | – | inactive: -0.633%
O=C(O)c1ccc(O)c2ncc(N3CCC(N4CCOCC4)C3)cc12 (stereo not given) | – | inactive: -13%
C=C1CCC2C(C)(C)CC(O)CC2(C)C1CCC(C)CC(=O)O (stereo not given) | – | inactive: -11.6%
Cc1ccc(N2CCN(C(=S)Nc3cc(C)ccn3)CC2)cc1 | inconclusive [inhibitor, single point] | –
O=c1[nH]cnc2c([C@@H]3N[C@H](CO)[C@@H](O)[C@H]3O)c[nH]c12 | inconclusive [inhibitor, partial curve, poor fit] | –

SMILES | Potency | activity change, negative = inhibition
Cc1cc(C(C)Nc2ccccc2)c2nc(N3CCOCC3)cc(=O)n2c1 (stereo not given) | – | inactive: -2.88%
O=C(Nc1cnc(Cl)nc1)c1ccc(F)c(F)c1 | inconclusive [inhibitor, partial curve, poor fit] | –
NC(=O)C1CCN(c2nc(-c3ccc(Oc4ccccc4)cc3)cs2)CC1 | inconclusive [inhibitor, single point] | –
Cc1cc(NS(=O)(=O)c2ccc(NS(=O)(=O)Cc3ccc(Cl)c(Cl)c3)cc2)no1 | inconclusive [inhibitor, partial curve, poor fit] | –
CCCCNc1nc(C)nc2c1nc(-c1ccccc1)n2CCCCN(CC)CC | – | inactive: 3.55%
c1csc(CNc2ncnc3cc(-c4ccc5c(c4)OCO5)ccc23)c1 | inconclusive [inhibitor, partial curve, poor fit] | –
Oc1c(C(Nc2ccccn2)c2ccccc2)cc(Cl)c2cccnc12 (stereo not given) | inconclusive [inhibitor, partial curve] | –
O=C(CC(c1ccccc1)c1ccccc1)N1CCN(C(c2ccccc2)c2ccccc2)CC1 | – | inactive: -4.19%
O=C(O)c1ccc(-c2noc(-c3ccccc3C(F)(F)F)n2)cc1 | – | inactive: 4.99%
Clc1nc(CN2CCOCC2)nc2sc3c(c12)CCC3 | inconclusive [inhibitor, partial curve, poor fit] | –
CC(C)Oc1ccc(-c2csc(N3CCC(C(N)=O)CC3)n2)cc1 | inconclusive [inhibitor, partial curve, poor fit] | –
Cc1cc(C)nc(NC(=S)N2CCN(c3ccc(Cl)nn3)CC2)c1 | inconclusive [inhibitor, single point] | –
O=C(NCCCn1ccnc1)c1cc(-c2ccco2)on1 | – | inactive: 2.01%
Cc1ccc(NS(=O)(=O)c2ccc3c(c2)CCO3)cc1C | inconclusive [inhibitor, partial curve] | –
O=S(=O)(Nc1nccs1)c1ccc(NCc2cccc(Br)c2O)cc1 | inconclusive [inhibitor, single point] | –
Cc1noc(CN(C)c2ncnc3ccc(-c4ccc5c(c4)OCO5)cc23)n1 | – | inactive: -3.12%
COC(=O)/C=C/C=C/C(=O)OC1C=C2COC(=O)C2(O)C2(C)CCCC(C)(C)C12 (stereo not given) | – | inactive: -10.9% [at 28 µM]
CC(=O)O[C@@H]1CC2C(/C=C(\C)C(=O)[C@@]3(O)C[C@@H](C)[C@H](OC(=O)c4ccccc4)C3/C=C/1C)C2(C)C (stereo not given in full) | – | inactive: -19.9% [at 28 µM]
O=C1CCc2cc(S(=O)(=O)Nc3ccccn3)ccc2N1 | inconclusive [inhibitor, partial curve, poor fit] | –
COc1cccc(C)c1C(=O)O[C@@H]1C[C@H](O[C@H]2[C@H](O)C[C@H](O[C@@H]3CCC[C@H]4[C@H]3C=C[C@@H]3CCCC/C=C/[C@H]5C=C(C(=O)O)[C@@H](C)C[C@@]56OC(=O)C(=C6O)OC(=O)[C@@]34C)O[C@@H]2C)O[C@H](C)[C@H]1O | – | inactive: -2.01% [at 16.9 µM]
